# In PubChem BioAssay AID624417 (National Center for Advancing Translational Sciences (NCATS), 2012):
# Out of some 410,000 compounds screened, about 6,400 (1.6%) were called active. Inconclusive results, whose numbers are uncertain, are shown with a selection of clear calls. Calls follow the shape of the dose curve; as a rule, active = well fitted inhibition curve with a large enough effect; inconclusive = small, poorly fitted or top-dose-only effect; inactive = no such curve, though single readings can be large or run the other way. Potencies of inconclusive entries are left out as doubtful fits.
# Biological target: Glucagon-like peptide 1 receptor (Homo sapiens) (UniProt P43220)
# Experiment: qHTS of GLP-1 Receptor Inverse Agonists (Inhibition Mode); also: nearly all actives have a fitted effect of over 55% in size
# Conditions: HEK293 GLP-1R CRE-luciferase, luminescence, 24 h, GLP-1R form is constitutively active; activity change, negative = inhibition: at 38.3 µM (top of the series) unless noted
# Method in brief: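 HEK293 cells stably co-expressing constitutively active GLP-1R and a cAMP-responsive luciferase reporter were seeded in DMEM with 10% Nu serum, given compounds after 12 h, and incubated 24 h at 37 deg C. Luminescence was then read.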
# % is scaled to controls: 0 for no effect and ±100 for the full control effect; potency is read from the fitted curve at half-maximal effect; tags tell the direction and shape of the fitted curve.
# UniProt P43220, sequence (P43220 whole entry, looked up): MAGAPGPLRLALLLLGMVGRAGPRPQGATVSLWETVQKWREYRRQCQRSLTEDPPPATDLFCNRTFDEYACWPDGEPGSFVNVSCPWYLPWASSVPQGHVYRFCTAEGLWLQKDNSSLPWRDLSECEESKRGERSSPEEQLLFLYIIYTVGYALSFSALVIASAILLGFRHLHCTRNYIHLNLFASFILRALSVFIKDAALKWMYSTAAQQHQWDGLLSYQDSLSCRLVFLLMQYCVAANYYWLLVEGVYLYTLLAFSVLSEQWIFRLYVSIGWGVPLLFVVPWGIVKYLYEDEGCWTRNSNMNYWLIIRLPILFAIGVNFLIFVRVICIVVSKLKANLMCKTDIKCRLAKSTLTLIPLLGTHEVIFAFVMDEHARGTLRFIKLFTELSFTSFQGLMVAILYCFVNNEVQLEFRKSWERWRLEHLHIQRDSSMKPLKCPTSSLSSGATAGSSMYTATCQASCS
Compound,Potency,"activity change, negative = inhibition"
CCOCCCNC(=S)N(Cc1ccccc1)Cc1nc2ccccc2c(=O)[nH]1,inactive,
Cc1cc(Br)ccc1OCCCCNC(C)(C)C,"inconclusive [inhibitor, partial curve, poor fit]",
Cc1ccc(C(=O)N/C(=C\c2cn(C)c3ccccc23)C(=O)OCCN(C)C)cc1,"inconclusive [inhibitor, single point]",
O=C1C2C3C=CC(C3)C2C(=O)N1/N=C/c1cc(Br)cc([N+](=O)[O-])c1O (centres undefined),"inconclusive [inhibitor, single point]",
CC(C)(C)c1ccc(CN(Cc2ccccc2)C(c2ccccn2)c2nnnn2C(C)(C)C)cc1 (centres undefined),active: 3.16 µM,
COc1cccc(CN2CCN(Cc3cccc(Br)c3)CC2)c1OC,,inconclusive: -57.7% [inhibitor]
CS(=O)(=O)n1nc(-c2ccco2)nc1NCc1ccccc1Cl,inactive,
COc1ccc(CC(=O)NCCc2csc(-c3ccc(C(F)(F)F)cc3)n2)cc1,inactive,
COc1cc(OC)cc(C(=O)NCCSC2CCCCC2)c1,"inconclusive [inhibitor, partial curve, poor fit]",
C=CC[C@@H](CC(=O)N[C@H](CO)Cc1ccccc1)C(=O)N[C@H](COC(=O)[C@@H](CC=C)Cc1ccc(F)cc1)Cc1c[nH]c2ccccc12,"inconclusive [inhibitor, full curve, poor fit]",
CN(C)CCc1cc2c(c3c1ccc1ccccc13)OCO2,"inconclusive [inhibitor, partial curve, poor fit]",
CC(C)C[C@H]1CNC(=S)N1C[C@H]1CCCN1C[C@H](Cc1ccc(O)cc1)N1C[C@H](Cc2ccccc2)N(CC2CCCCC2)C1=S,"inconclusive [inhibitor, single point]",
O=C(Cc1ccccc1)N/N=C/c1cccn1-c1ccc([N+](=O)[O-])cc1,"inconclusive [inhibitor, full curve, poor fit]",
Oc1ccc(Cl)cc1C(C#Cc1ccccc1)N1CCOCC1 (centres undefined),"inconclusive [inhibitor, single point]",
Cc1ccc(C)c(N2CCN(C(=O)c3ccc4nc(-c5ccco5)c(-c5ccco5)nc4c3)CC2)c1,"inconclusive [inhibitor, single point]",
COC(=O)[C@]12CCCCC=C1N(Cc1ccc3c(c1)OCO3)C(=O)[C@H](CC(=O)NCCC(C)C)C2,"inconclusive [inhibitor, single point]",
COc1c(Cl)cc(Cl)cc1C(=O)Nc1ccc(CN2CCCCC2)cc1,"inconclusive [inhibitor, full curve]",
O=C(NCc1ccco1)C1CC(c2c(Cl)cccc2Cl)=NO1 (centres undefined),"inconclusive [inhibitor, partial curve]",
CCOc1ccccc1CNC(=O)Cn1ccc2cc(S(=O)(=O)N3CCCCCC3)ccc21,"inconclusive [inhibitor, single point]",
COCCCNC(=O)CC(NS(=O)(=O)c1ccc(C)cc1)c1ccco1 (centres undefined),inactive,
Cc1cccc(C)c1NC(=O)C1(C)CN(S(C)(=O)=O)CC(=O)N1Cc1cccs1 (centres undefined),inactive,
COc1cc2c(cc1OC)C(C)N(C(=O)c1cccs1)CC2 (centres undefined),,inactive: 1.04% [at 0.307 µM]

Compound,Potency,"activity change, negative = inhibition"
CN(C)CCCN(C(=O)c1ccc(S(=O)(=O)N2CCc3ccccc3C2)cc1)c1nc2c(F)cccc2s1,"inconclusive [inhibitor, single point]",
Cc1cc(Cl)c2oc(C(=O)NCC(C)(C)N3CCOCC3)c(C)c2c1,"inconclusive [inhibitor, full curve, poor fit]",
Cc1cc(C)c(NC(=S)NCCO)c(C)c1,inactive,
O=C(Nc1ccc(-c2nc3ccccc3s2)c(OC(=O)c2ccccc2)c1)c1ccccc1,inactive,
Oc1ccc(/C=N/NC(=S)NCc2ccco2)cc1,inactive,
CC(C)CNC(=O)c1oc2ccccc2c1COc1ccccc1,active: 5.01 µM,
CC(C)Oc1ccc(Cn2c(=O)sc3ccccc32)cc1,"inconclusive [inhibitor, single point]",
Fc1ccc2c(-c3cccc(C(F)(F)F)c3)c(-c3ccccc3)ncc2c1,"inconclusive [inhibitor, single point]",
COc1ccc(Cl)cc1-c1cc(C(=O)Nc2ccccc2)[nH]n1,"inconclusive [inhibitor, single point]",
COC(=O)N1CCCc2cc(S(=O)(=O)N3CCN(c4ccccc4)CC3)ccc21,inactive,
COC(=O)C1=C(C)N(Cc2ccccc2)C(=O)N[C@H]1c1cccc(C(F)(F)F)c1,"inconclusive [inhibitor, partial curve, poor fit]",
CCOC(=O)c1cccc(NC(=O)CC2C(=O)N(c3ccc(C)cc3)C(=O)N2Cc2cccc(OC)c2)c1 (centres undefined),"inconclusive [inhibitor, single point]",
COc1ccc(NC(=O)c2cccc(F)c2)cc1Cl,"inconclusive [inhibitor, single point]",
Cn1c(NC(=O)c2ccc(F)cc2)nc2ccccc21,"inconclusive [inhibitor, single point]",
c1cnc(SCCOc2cccc3ccccc23)nc1,"inconclusive [inhibitor, single point]",
CCCC1CCC(c2ccc(OCC)cc2)=CC1=O (centres undefined),inactive,
CCCNc1nc(Nc2ccc(C)cc2)nc(N2CCCC2)n1,"inconclusive [inhibitor, full curve, poor fit]",
COc1ccc(/C(N)=N/OC(=O)CN(C)S(=O)(=O)c2ccccc2)cc1,"inconclusive [inhibitor, single point]",
CC1Oc2ccccc2C=C1/C=N/Nc1ccc(C(=O)O)cc1 (centres undefined),"inconclusive [inhibitor, single point]",
C=CCNc1nc(NCC)nc(N2CCOCC2)n1,inactive,
Cc1ccccc1-c1cnc(C(O)c2ccc(Cl)cc2C)[nH]1 (centres undefined),"inconclusive [inhibitor, single point]",
O=C(C[C@@H]1C/C=C\C[C@H](NC(=O)OCC2c3ccccc3-c3ccccc32)C(=O)OC[C@H]2CCCN2C1=O)N[C@H](CO)Cc1ccccc1,"inconclusive [inhibitor, single point]",

Compound,Potency,"activity change, negative = inhibition"
CC(C)Oc1cccc(C(=O)Nc2ccc(NC(=O)c3ccco3)cc2)c1,"inconclusive [inhibitor, full curve, poor fit]",
COc1ccccc1Oc1ccc(S(=O)(=O)N2CCCCC2C)cc1 (centres undefined),"inconclusive [inhibitor, single point]",
O=C(Nc1ccccc1O)c1cc(S(=O)(=O)N2CCCC2)ccc1Cl,"inconclusive [inhibitor, partial curve, poor fit]",
N#CCCN1CCN(C(CNS(=O)(=O)c2ccc(Cl)cc2)c2ccccc2)CC1 (centres undefined),"inconclusive [inhibitor, full curve, poor fit]",
COC(=O)c1ccc(/C=C2/SC(=S)N(CCC(=O)NCCCN3CCOCC3)C2=O)cc1,"inconclusive [inhibitor, partial curve]",
COc1ccc(C2CC(=O)c3c([nH]c(C(=O)OC4CCCCCC4)c3C)C2)cc1 (centres undefined),"inconclusive [inhibitor, full curve, poor fit]",
CCOc1ccccc1C(=O)Nn1c(C2CCC2)nc2ccccc2c1=O,"inconclusive [inhibitor, partial curve, poor fit]",
O=C(OCCNc1nc(-c2ccccc2)nc2ccccc12)c1ccncc1,"inconclusive [inhibitor, single point]",
O=C(Nc1ccc(S(=O)(=O)Nc2ccccc2)cc1)c1ccc(CN2CCOCC2)cc1,"inconclusive [inhibitor, full curve, poor fit]",
COc1cccc(C2SCC(=O)N2c2ccc(Br)cc2)c1OC (centres undefined),"inconclusive [inhibitor, partial curve, poor fit]",
Cc1ccc(C(=O)CN(Cc2ccccc2)C2=NCCS2)cc1,"inconclusive [inhibitor, partial curve]",
CCC(=O)NC(c1ccc(OC)cc1)c1c(O)ccc2ccccc12 (centres undefined),active: 3.55 µM,
CCCCn1nc(C(=O)N(C)C2CCCCC2)c2ccccc2c1=O,"inconclusive [inhibitor, partial curve, poor fit]",
Cn1cc(CN2CCC(C(=O)NC(c3ccc(-c4ccccc4)cc3)c3cnccn3)CC2)c2ccccc21 (centres undefined),"inconclusive [inhibitor, partial curve]",
CCCN(CC1CC1)C(=O)COC(=O)c1oc2c(F)cccc2c1C,"inconclusive [inhibitor, single point]",
O=C(CCc1nc(-c2ccccc2F)no1)NCCc1ccccc1Cl,"inconclusive [inhibitor, single point]",
CCC[C@@H]1CCCC/C=C\CCCC(=O)OCCN1C(=O)OC(C)(C)C,"inconclusive [inhibitor, single point]",
COc1ccc(NC(=S)NC2CC3CCCC(C2)N3C2CC2)cc1 (centres undefined),"inconclusive [inhibitor, single point]",
CC(C)c1cc(C(=O)N/N=C/c2c[nH]c3ccccc23)n[nH]1,"inconclusive [inhibitor, partial curve]",
Cc1c(Nc2nc(-c3cccc([N+](=O)[O-])c3)cs2)c(=O)n(-c2ccccc2)n1C,"inconclusive [inhibitor, full curve, poor fit]",
